Here are results for ten compounds from paper PMC11243198, “Identification of Novel GANT61 Analogs with Activity in Hedgehog Functional Assays and GLI1-Dependent Cancer Cells” (Molecules, 2024).

SMILES strings stand for the structures. Marks after values point to notes of the source that are not given here. Where only a bound is given, the exact number is not on record here.

For data set [1], the system named is Hh pathway in C3H10T1/2 cells. The data set can be described thus: C3H10T1/2 Hedgehog-responsive cell-based assay, alkaline phosphatase (AP) fluorescence readout. The following applies: for Activity among the fifty-two analogs screened (preliminary SAR): screening for Hh pathway inhibition; for C3H10T1/2 (Flu AP) % inhibition at highest dose tested: SAG 30 nM, 5 days. Details: species or system murine.

For data set [2], the system named is Gli-luciferase reporter NIH3T3 cell line. The data set can be described thus: Gli-luciferase NIH3T3 reporter assay. To be noted: SAG 26 nM, 30 h; for IC50: Mus musculus, NIH3T3, read-out: Gli-NIH3T3 (luciferase, IC50 μM). It counts as cell-based. On the procedure: In these engineered NIH3T3 cells, the gene for firefly luciferase was stably integrated to be under the transcriptional control of Gli-responsive elements.
Gli reporter NIH3T3 cells (BPS Bioscience, catalog# 60409), a stable cell line that contains firefly luciferase gene under the control of Gli-responsive elements, were used to measure Hh pathway activity. Cells were grown in 96-well plates at a density of 25,000 cells/well for 24 h in Thaw Medium 5 (BPS Bioscience). After 24 h, the medium was replaced with fresh assay media (100 μL) using a Biomek®NX (Brea, CA, USA) automated liquid handler. […] To assess inhibition, the GANT61 analogs were added (serial dilutions of 0.098 to 50 μM) using a D300 system, and cells were then incubated at 37 °C for 30 h. Firefly luciferase activity was measured using the One-Step Luciferase Assay, according to vendor’s protocol (BPS Bioscience, catalog # 60690-1). Briefly, One-Step luciferase reagent (100 μL) was added to each well and incubated by shaking for 20 min at room temperature, followed by luminescence detection using a GloMax plate reader (Promega). To account for background luminescence, cell-free control wells were included. The background-subtracted luminescence of cells stimulated with SAG alone was set as 100% luminescence for calculating percent inhibition of the test compounds. The inhibition curves were plotted using GraphPad Prism 9 to determine IC50 values. Each assay was repeated at least three times.

Data set [3] concerns Hh pathway in C3H10T1/2 cells. The data set can be described thus: C3H10T1/2 AP absorbance (colorimetric, pNPP) assay. Type of data set: cell-based, murine. To be noted: SAG 30 nM, 5 days; for IC50: Mus musculus, C3H 10T1/2, 120 h, absorbance 405 nm, read-out: C3H10T1/2 (Abs AP, IC50 μM).
The test system of data set [4] is Hh pathway in C3H10T1/2 cells. The data set can be described thus: C3H10T1/2 AP fluorescence assay with purmorphamine (PUR) as pathway activator. Type of data set: cell-based, murine. To be noted: PUR 500 nM, 5 days.
On the set-up of data set [5]: method as in PMID 29338454. To be noted: cited from earlier work.

On to `c1ccc(NCc2ccncc2)cc1` [BAS 06103407], for which the “Activity among the fifty-two analogs screened (preliminary SAR)” value in data set [1] is “inactive”.
With `N#Cc1ccc(C(=O)Nc2ccccc2C(=O)NC2CC2)cc1` [Compound Z27610715], the IC50 in data set [2] amounted to 6.7 µM. In addition, the “C3H10T1/2 (Abs AP) % inhibition at highest dose tested” value (“C3H10T1/2 (Abs AP) % inhibition” below) in data set [3] was below 20%.
As for `c1cc(CNc2ccc(N3CCCC3)cc2)ccn1` [BAS 07019774, pyridin-4-ylmethyl-(4-pyrrolidin-1-yl-phenyl)-amine], the IC50 in data set [2] turned out to be 11.2 µM; in data set [3] it was 3.3 µM.
Turning to `CN(Cc1ccccc1)C1CCNCC1` [BAS 09681156], the “C3H10T1/2 (Flu AP) % inhibition at highest dose tested” value (“C3H10T1/2 (Flu AP) % inhibition” for short) in data set [1] was below 20%. Further, in data set [2], the IC50 came to 3.8 µM. Moreover, the “C3H10T1/2 (Abs AP) % inhibition” value in data set [3] is around 30%. Further, in data set [4], the “C3H10T1/2 (PUR; Flu AP) % inhibition at highest dose tested” value (from here on “C3H10T1/2 (PUR; Flu AP) % inhibition”) is around 40%.
For the compound `CNC(=O)c1ccc(NC(=O)CCNC(=O)c2ccccc2)cc1` [Compound Z27613695], the “C3H10T1/2 (Flu AP) % inhibition” value in data set [1] is on record as below 20% ^a. Moreover, the “Gli-NIH3T3 (luciferase) % inhibition at highest dose tested” value in data set [2] is below 20%. Further, the “C3H10T1/2 (Abs AP) % inhibition” value in data set [3] is reported as below 20%. Further, the “C3H10T1/2 (PUR; Flu AP) % inhibition” value in data set [4] was below 20%.
Consider `CCC(=O)Nc1ccc(N2CCN(Cc3ccccc3)CC2)cc1` [BAS 06844821], for which the “C3H10T1/2 (Flu AP) % inhibition” value in data set [1] was below 20%. Moreover, the “Gli-NIH3T3 (luciferase) % inhibition at highest dose tested” value in data set [2] is recorded as around 40%. Also, the “C3H10T1/2 (Abs AP) % inhibition” value in data set [3] was below 20%. Further, in data set [4], the “C3H10T1/2 (PUR; Flu AP) % inhibition” value is below 20%.
On to `CC1=C2C[C@H]3[C@@H](CC=C4CC(=O)CC[C@@]43C)[C@@H]2CC[C@]12O[C@@H]1C[C@H](C)CN(CCNC(=O)CCCCCNC(=O)CCc3ccccc3)[C@H]1[C@H]2C` [KAAD-cyc, KAAD-cyclopamine, reference compound], for which it took 0.04 µM to reach the 90% level in data set [1] (with 30 nM SAG, used as minimum signal control) (IC90).
Turning to `CN(C)c1ccccc1CN1CCCN(Cc2ccccc2N(C)C)C1c1ccncc1` [GANT61], the IC50 amounted to 1.9 µM in data set [2] and 3.7 µM in data set [3]. Moreover, the “stability under physiological conditions” value in data set [5] is “unstable under physiological conditions”.
`Fc1ccc(NCc2ccncc2)cc1` [BAS 07018849]: in data set [1], the “Activity among the fifty-two analogs screened (preliminary SAR)” value is “inactive”.
On to `Nc1ccc(CN2CCCCCC2)cc1` [BAS 06348344], for which the “C3H10T1/2 (Flu AP) % inhibition” value in data set [1] is on record as below 20%. Besides, the IC50 in data set [2] was determined as 0.9 µM. In data set [3], the “C3H10T1/2 (Abs AP) % inhibition” value was below 20%. Moreover, the “C3H10T1/2 (PUR; Flu AP) % inhibition” value in data set [4] was below 20%.

A word on the IC90: it is the point of the concentration-response curve where the effect stands at 90%. Low values mean greater potency, high ones weaker potency.
